Hit rate of the full screen: of about 410,000 compounds, about 310 (0.076%) were called active. Inconclusive means that the source gave no clear call. Such entries were picked first, then a sample of the others. The call rests on the fitted dose curve; in most records, active means well fitted curve in the direction sought with a large enough effect; inconclusive means small, poorly fitted or top-dose-only effect; inactive means flat fitted curve, though single readings scatter. Where the call is inconclusive, the potency comes from a doubtful curve fit.
Target: DNA dC->dU-editing enzyme APOBEC-3G (Homo sapiens) (UniProt Q9HC16)
UniProt Q9HC16, sequence (Q9HC16 whole entry, looked up): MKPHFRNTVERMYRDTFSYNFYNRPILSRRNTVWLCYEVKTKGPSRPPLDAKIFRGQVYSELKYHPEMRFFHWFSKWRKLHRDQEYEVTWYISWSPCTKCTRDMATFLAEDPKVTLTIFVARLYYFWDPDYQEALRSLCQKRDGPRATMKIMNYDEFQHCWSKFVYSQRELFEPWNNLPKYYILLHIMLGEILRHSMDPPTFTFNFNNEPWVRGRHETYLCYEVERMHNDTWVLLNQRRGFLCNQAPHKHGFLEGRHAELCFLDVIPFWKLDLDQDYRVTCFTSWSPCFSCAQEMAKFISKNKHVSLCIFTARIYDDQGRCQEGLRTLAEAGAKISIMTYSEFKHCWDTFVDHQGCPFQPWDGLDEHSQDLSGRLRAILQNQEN
Test: qHTS for Inhibitors of Vif-A3G Interactions: qHTS; further: nearly all actives have a fitted effect of over 60% in size
Settings: HeLa A3G-eYFP + Vif (tagged APOBEC3G with the HIV-1 protein that degrades it), YFP fluorescence, overnight; series mostly up to 46.1 µM
Method in brief: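 HeLa cells stably expressing Vif and C-terminally eYFP-tagged A3G, seeded overnight at 37 deg C, then exposed to compound by pintool overnight at 37 deg C. Rise in yellow fluorescence (Ex 488/Em 500-530, Acumen) marks blocked Vif-driven A3G degradation.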
Potency means the concentration at half of the fitted maximal effect; tags describe the fitted curve by direction and shape.

Structure (SMILES) | Potency
COc1ccc(C=C2CS(=O)(=O)CC(=Cc3ccc(OC)cc3)C2=O)cc1 | inconclusive: 3.55 µM [inhibitor, full curve, poor fit]
Nc1nc(N)c(-c2ccccc2)s1 | inactive
Cc1oc(-c2ccccc2F)nc1CSCC(=O)NC1CCC(C)CC1 (stereo not drawn) | inactive
CCOc1cc(C(=O)N/N=C(\C)Cc2ccc(OC)cc2)cc(OCC)c1OCC | inconclusive: 15.8 µM [inhibitor, single point]
CCNC(=O)c1c(NC(=O)c2cc(=O)c3ccc(C)c(C)c3o2)sc2c1CCCC2 | inactive
CCCC1C2CN(C(C)C)CC=C2C(C#N)=C(N)C1(C#N)C#N (stereo not drawn) | inactive
O=c1cc2nc(-c3ccccc3)nc(SCc3cccc(Br)c3)n2[nH]1 | inactive
CCn1ncc(C2=NOC(C(=O)NCc3ccc(OC)cc3)C2)c1C (stereo not drawn) | inconclusive: 11.2 µM [inhibitor, partial curve]
CCOC(=O)C1(Nc2nccs2)Sc2ccccc2NC1=O (stereo not drawn) | inconclusive: 2.51 µM [inhibitor, full curve, poor fit]
O=C1C=C(C2OC(CO)C(O)C2O)C(=O)N1 (stereo not drawn) | inconclusive: 35.5 µM [inhibitor, single point]
O=C(O)CN1C(=O)/C(=C\c2cc(Br)ccc2OCc2ccc(Cl)cc2Cl)SC1=S | inactive
CC(=O)Nc1ccc(C2=NN(C)C(=NCc3ccccc3)SC2)cc1 | inactive
COc1ccc(S(=O)(=O)NCc2ccccn2)cc1NC(=O)c1ccccc1 | inconclusive: 8.91 µM [inhibitor, partial curve]
O=S(NCc1ccccc1)C12CC3CC(CC(C3)C1)C2 (stereo not drawn) | inactive
COc1cc(Cl)c(NC(=O)CN(C)S(=O)(=O)c2ccc3[nH]c4c(c3c2)CCCC4)c(OC)c1 | inactive
CSC1=NSC2=NC(=O)/C(=C/c3coc4ccccc4c3=O)C(=N)N12 | inconclusive: 22.4 µM [inhibitor, single point]
CCC[C@H]1NC(=O)[C@H](C)N(C)C(=O)C(C)(C)C(=O)C(C)NC(=O)[C@H](Cc2ccc(OC)cc2)N(C)C(=O)[C@H](C(C)C)N(C)C(=O)CNC(=O)[C@H](CC(C)C)N(C)C(=O)CNC(=O)[C@H]([C@@H](C)CC)OC(=O)[C@H]1C (stereo partly drawn) | inactive
Cc1ccc(S(=O)(=O)C(C#N)c2nc3ccccc3nc2N2CC(C)OC(C)C2)cc1C (stereo not drawn) | inconclusive: 15.8 µM [inhibitor, single point]
Clc1ccccc1CN(Cc1ccccc1)c1ncnc2nc[nH]c12 | inactive
CCOC(=O)C1=C(C)NC2=C(C(=O)c3ccccc32)C1c1ccc([N+](=O)[O-])o1 (stereo not drawn) | inconclusive: 35.5 µM [inhibitor, single point]
CCN1CCN(CCCNC(=O)c2ccc3c(c2)sc2nc(-c4ccc(C)cc4)cn23)CC1 | inconclusive: 35.5 µM [inhibitor, single point]

Structure (SMILES) | Potency
COc1ccc(C(=O)/C=C/c2cc(OC)c(O)c(OC)c2)c(F)c1 | inconclusive: 22.4 µM [inhibitor, single point]
C#CCOCCOCCOCCNc1nc(N2CCN(C(=O)CCCCCCCCCCNC(=O)Cn3cc(C[C@@H](C)O)nn3)CC2)nc(N2CCN(C(=O)CCCCCCCCCCNC(=O)[C@H](CCCN=C(N)N)n3cc(C[C@@H](C)CC)nn3)CC2)n1 | inactive
Cc1ccc(/C(C#N)=C\c2ccc(N3CCOCC3)o2)cc1 | inconclusive: 17.8 µM [inhibitor, partial curve, poor fit]
CCN(Cc1cccc(S(=O)(=O)O)c1)c1ccc(C(=C2C=CC(=[N+](CC)Cc3cccc(S(=O)(=O)O)c3)C=C2)c2ccccc2S(=O)(=O)[O-])cc1 | inactive
Cc1cccc(-n2ncc(C(=O)NCc3ccco3)c2C2CCN(C(=O)OC(C)(C)C)CC2)c1 | inactive
N#CCC(=O)N/N=C/c1cn(Cc2cccc3ccccc23)c2ccccc12 | inconclusive: 2.51 µM [inhibitor, full curve, poor fit]
Cc1c(NC(=O)C(C)N2C(=O)C3CCCCC3C2=O)c(=O)n(-c2ccccc2)n1C (stereo not drawn) | inconclusive: 0.316 µM [inhibitor, full curve, poor fit]
CCOc1ccc(-c2cc(N3C(=O)Nc4ccccc4N3O)n[nH]2)cc1 | inconclusive: 22.4 µM [inhibitor, single point]
CCOc1cc(/C=C(/C#N)C(=O)Nc2ccc(OC)cc2)ccc1OCc1ccc(C(=O)O)cc1 | inconclusive: 35.5 µM [inhibitor, partial curve, poor fit]
CCOc1ccc2[nH]c(=O)c(CN(Cc3cccs3)Cc3nnnn3C(C)(C)C)cc2c1 | inconclusive: 10 µM [inhibitor, partial curve, poor fit]
Cc1ccc(S(=O)(=O)N2CCCCC2CCNC(=O)C(=O)NCc2ccco2)cc1 (stereo not drawn) | inconclusive: 8.91 µM [inhibitor, partial curve]
COc1cc(OC)cc(C(=O)N[C@H](C(=O)OCC(=O)Nc2ccc(F)c(F)c2)C(C)C)c1 | inactive
COC(=O)CSC1=C(C#N)C(c2cccc(F)c2)CC(=O)N1 (stereo not drawn) | inconclusive: 10 µM [inhibitor, partial curve]
CC(=O)c1ccc(-c2cnc3c(NC=O)cc(-c4cnn(C)c4)cn23)cc1 | inconclusive: 20 µM [inhibitor, single point]
Cc1ccc(C(=O)c2c3ccc([N+](=O)[O-])cc3[n+]([O-])n2CCCN)cc1 | inconclusive: 14.1 µM [inhibitor, single point]
COc1ccc(-c2nnc(SCC(=O)NCc3ccccc3)nc2-c2ccc(OC)c(OC)c2)cc1OC | inconclusive: 2.82 µM [inhibitor, full curve, poor fit]
CCc1nc(C)cn1S(=O)(=O)c1cc([N+](=O)[O-])ccc1Cl | inconclusive: 15.8 µM [inhibitor, single point]
Cc1ccc(NS(=O)(=O)c2cc(C(=O)NCCSc3ccc(C)cc3)ccc2C)cc1 | inactive
COc1ccc(/C=N/NC(=O)c2ccncc2)cc1COc1ccc(NC(C)=O)cc1 | inconclusive: 11.2 µM [inhibitor, single point]
O=C(CCN1C(=O)/C(=C/c2ccccc2F)SC1=S)NCCCn1ccnc1 | inactive
O=C(N/N=C/c1cccc(OC(=O)c2ccccc2Cl)c1)c1cccnc1 | inconclusive: 35.5 µM [inhibitor, single point]

Structure (SMILES) | Potency
N#Cc1ccccc1S(=O)(=O)N1CCCC(c2nc3c(nnn3Cc3cccc(Cl)c3)c(=O)[nH]2)C1 (stereo not drawn) | inactive
CCN1c2ccccc2N(C)C1(C)c1ccccc1 (stereo not drawn) | inconclusive: 35.5 µM [inhibitor, single point]
COc1cc(CNC2CCCC2)cc(Cl)c1OCc1ccccc1Cl | inconclusive: 17.8 µM [inhibitor, partial curve, poor fit]
COc1ccc(CCN(C)Cc2ccc(OCc3ccccc3)c(OC)c2)cc1OC | inactive
CCC1C/C(=C\c2cc(OC)c(OC)cc2OC)C(=O)/C(=C/c2cc(OC)c(OC)cc2OC)C1 (stereo not drawn) | inconclusive: 14.1 µM [inhibitor, partial curve, poor fit]
Cc1ccc(Cc2c(C)nc3nc(SCC(=O)NCc4ccco4)nn3c2C)cc1 | inconclusive: 3.55 µM [inhibitor, full curve, poor fit]
CC(C)(C)n1ncc2c(=O)n(Cc3ccc(C#N)cc3)cnc21 | inactive
COc1ccc(-c2cnnc(N/N=C/c3ccc(O)c(O)c3)n2)cc1 | inconclusive: 15.8 µM [inhibitor, single point]
CC(=O)Nc1ccc(-c2ccnc3c2CC(C(=O)NCc2ccco2)O3)cc1 (stereo not drawn) | inconclusive: 0.562 µM [inhibitor, full curve, poor fit]
Clc1cccc(Cl)c1COn1nnc2ccccc21 | inconclusive: 25.1 µM [inhibitor, single point]
Cc1ccc2nc(/C(C#N)=C/c3ccc(-c4ccc(F)cc4F)o3)[nH]c2c1 | active: 11.2 µM
Cc1ccc(Cl)cc1NC(=O)C1CCCN(S(=O)(=O)c2c(C)noc2/C=C/N(C)C)C1 (stereo not drawn) | inactive
COc1cc([C@H]2c3[nH]c4ccccc4c3C[C@H]3C(=O)N4[C@@H](c5cc(OC)c(OC)c(OC)c5)c5[nH]c6ccccc6c5C[C@H]4C(=O)N23)cc(OC)c1OC | inconclusive: 20 µM [inhibitor, single point]
CN(C)c1ccc(/C=C(\C#N)c2nc3ccccc3c(=O)[nH]2)cc1 | inconclusive: 3.55 µM [inhibitor, partial curve, poor fit]
CCO[C@H]1OC(C(=O)NCc2nc3ccccc3[nH]2)=C[C@@H](C2CC2)[C@@H]1CCCO | inconclusive: 1.12 µM [inhibitor, full curve]
CCOCCCn1c(=NC(C)=O)c(C#N)cc2c(=O)n3cccc(C)c3nc21 | inactive
CSc1nc2ccccc2cc1/C=C(\C#N)c1ccccc1 | inconclusive: 6.31 µM [inhibitor, partial curve, poor fit]
N#CC1=C(N)SC(N)=C(C#N)C1CCc1ccccc1 | inconclusive: 17.8 µM [inhibitor, single point]
O=C(c1ccc(CS(=O)c2ccccc2Cl)o1)N1CCN(c2ccccc2F)CC1 (stereo not drawn) | inconclusive: 1.41 µM [inhibitor, full curve, poor fit]
Cc1ccccc1-n1c(SC(C)C(N)=O)nnc1-c1cccnc1 (stereo not drawn) | inactive
CN(C)CCNC(=O)c1cccc(-c2cnc3c(NC=O)cc(/C=C/c4ccccc4)cn23)c1 | inconclusive: 28.2 µM [inhibitor, single point]

— PubChem BioAssay AID602310 (National Center for Advancing Translational Sciences (NCATS), 2012)
